Sequences and labels used below:
B1: OR4K15 (parent)
chain: GUUAACGGUCAUAGGCCAUGGAAACUAGGAGCACCAUUUCGCUGCCAGUGAAGAAAUGAACAAAGAAAAUCUGGGCCAGGCAGGCAUCAAAAGAAAUAGUCUUGCGCUCAACCAGAAAGUCUGUAAUCAUUUUAAGGGUA

Read counts are not given, so values of variants with three or more changes are uncertain.

This data set covers variants of B1. Kind of data set: self-cleavage, relative activity (ratio to wild type); higher = more cleavage; in vitro, sequencing; the parent is a self-cleaving ribozyme.
For A54G A56G A82C A89U, the self-cleavage worked out at 0.23. With A51G U57C U72A, the self-cleavage is 0.16.

Regarding A52G A54G A94G U100C A140G, the self-cleavage turned out to be 1.71. Under A51G A86U A125G stands 0.78; under A51G U70C A111G, 0.01; under A52G A78G U87C A125C, 0.13. For A51U A64G A110G, the self-cleavage is 0.11. Under A52G A78G U120C A125G stands 0.01. With A51G A96G U102C U120G, the self-cleavage was 1.89. In the case of A52G A60G A64G A118G, the self-cleavage came out at 1.1.

For A54G A62G C85A U100C A110U U122C, the self-cleavage was 0.7. Consider A51G A55G A96G, for which the self-cleavage is 0.84. For A54G A78U U102C A111G, the self-cleavage turned out to be 0.03. Regarding A52G A90G A125G U131C, the self-cleavage stood at 0.1. Consider A52U U57C U70C A116G U131G, for which the self-cleavage was 1.39. As for A52G G58A A69U A82G C112U A117G U122G, the self-cleavage was found to be 0.01. As for A51U A82G U87C U100C A110C, the self-cleavage was determined as 0.16.

For A51U A62G U102A U108C A118G, the self-cleavage was determined as 0.01. For the variant A52U A55G A118G, the self-cleavage was determined as 1.42. As for A54G A94G A135U, the self-cleavage was 2.05. For the variant A52G A89G U122C, the self-cleavage was found to be 1.38.

In the case of A54G A60G C88A A118G, the self-cleavage was 0.48. Under A52U A68G U108C stands 0.03; under A51G A59G A92G U124C U133C, 1.

Turning to A54G A55G A67U A69G, the self-cleavage worked out at 0.96. Consider A54G A62G U132A, for which the self-cleavage stood at 0.71.

For A52G A64G U103A U132C, the self-cleavage turned out to be 0.91.

Turning to A54G A90G U132C, the self-cleavage is 0.86.

As to A51G A52G A56G A67G U72A, the self-cleavage was 0. Regarding A52G A63G A67G A69C A89G A92G U133A, the self-cleavage came to 1.78.

As for A51U A55G A59G, the self-cleavage was found to be 1.27. In the case of A52G A66G U87C U100C A117G it was 1.18; in that of A51U U87C A118U, 0.43; in that of A51G A56G A66G, 0.21. Turning to A54G A69U A117U U130C, the self-cleavage stood at 0.74.

Take A54G A66U A92G: the self-cleavage was 2.05. As for A51G A94G U132C, the self-cleavage amounted to 1.83. Take A54G A66U G84C A118G U131C: the self-cleavage was found to be 0.07. In the case of A52U U100C U120C it was 2.62; in that of A51G A62G A118U, 0.11. On to A54G A68G U122C U131C, for which the self-cleavage amounted to 0.66. With A52U U70C A117G, the self-cleavage was determined as 2.17. For the variant A52G A59G G80U A89C A117G, the self-cleavage is 0.21. Regarding A52G A94G U100C U108C A135U, the self-cleavage was 0. In the case of A54G A89G G104U A140U it was 0.01; in that of A51G A68G U72C A94G U122C, 0.07. In the case of A52G A116G U130C, the self-cleavage is 0.8. For the variant A51U U70C U108C, the self-cleavage was found to be 0.01. In the case of A51G A52G G75A A91G A98G U108C A116G it was 0.04; in that of A54G A89G A91G, 1.08. For A52G A54G A95U, the self-cleavage came out at 0.83. Take A54G A69G A118G U120A: the self-cleavage came to 1.8.

Regarding A51U A62G U102C, the self-cleavage turned out to be 0.91. For A52G A96G U139C, the self-cleavage was found to be 1.51. In the case of A51G G73A A91G U124C A135G, the self-cleavage is 0.06.

As for A54G A64G C105U U108C U122C A134U, the self-cleavage is 0. With A52G A82U A86G, the self-cleavage came to 0.15. Take A51G A86G A114G: the self-cleavage was 1.27. Regarding A52U U122C U130C, the self-cleavage was 1.65. Under A51G A52G A67U U108C stands 0.06; under A51G A64G U108C, 0.02. As to A54G A64G A67G U87C U102A A116G A135U, the self-cleavage is 0.05.

Turning to A51C A82G A118G A126G, the self-cleavage was 0.22. Consider A51G A60G U102C, for which the self-cleavage was determined as 1.9. In the case of A52G A56G A59G A60G A95G A110U, the self-cleavage stood at 1.11. Under A51G A96U U120C stands 1.27; under A51G A59G A95G, 0.51. Turning to A52U U57A A129U, the self-cleavage was found to be 0.98. Turning to A52C A54G A118G, the self-cleavage was found to be 0.89. In the case of A52G A56G A68G it was 0.71. In the case of A51C A67G U70A it was 1.34; in that of A51G A66G A110G, 0.21. Under A51G A92G U120C A129G stands 0.23; under A52G U57A U97C, 0.35.

For the variant A51G A110G U131C, the self-cleavage worked out at 0.06. As to A51U U100G U103A A110C, the self-cleavage was found to be 0.03.

As for A51G A59G A96G A110G, the self-cleavage came out at 0.15. Under A54G A56G A126C stands 0.2; under G53U A59G U72A U87C U122C U131C, 0.08. Regarding A51G A63G C107A, the self-cleavage was determined as 0.03. In the case of A51U A69G A95G, the self-cleavage was determined as 0.96. Turning to A52G U72G A96G, the self-cleavage stood at 0.19. With A54G A59U A64G, the self-cleavage came out at 1.37.

With A54G A69G U130C, the self-cleavage was 1.78. For the variant A51U A82G A94G, the self-cleavage was determined as 0.72.

Take A51G A82U C88A A95G: the self-cleavage is 0.22. Regarding A51G A56G A111U A125G, the self-cleavage amounted to 0.01. A52G A64U A111G A126G: the self-cleavage turned out to be 0.02. In the case of A51G A62G A116G, the self-cleavage was 0.47.

Turning to A54G A68G A90G A96G U100C U133A, the self-cleavage was 2.39. In the case of A52G A95G A140G, the self-cleavage worked out at 2.17. For the variant A51G A91U U102C, the self-cleavage was found to be 1.92.

A52G A55G A64U U87A U97C U130C: the self-cleavage was 0.58. As for A52G A67G A91G U139G, the self-cleavage was found to be 1.95. In the case of A54G A68G A91G A129G A135G it was 0.74; in that of A51G A86G A94G, 1.49.

In the case of A54G A59G U124C, the self-cleavage came out at 0.57. Turning to A51G A66G A86G U87C, the self-cleavage stood at 0.89. As to A51G U57C A67G, the self-cleavage turned out to be 1.13. A52G A82C A86U U139C: the self-cleavage was 0.14.

As for A54G A68G U102C, the self-cleavage came out at 1.46. For A51G U70C U130C, the self-cleavage came to 0.21. Under G53A A67G A86G A91G A118G stands 0.08. In the case of A51U A68G U72G A89U it was 0.06; in that of G53A A82U A125G U132C, 0.01. Consider A52C A63G A68G A78G A116G, for which the self-cleavage turned out to be 0.26.

Consider A52G A111U A116G A126G, for which the self-cleavage was 0.03.

A51G A111G U132C: the self-cleavage came to 0.

As for A52U A117G C128U, the self-cleavage amounted to 0.75. Take A54G A82U A116G: the self-cleavage came out at 0.04. Consider A52U C105A U122C A134G, for which the self-cleavage stood at 0. As for A52G A95G A129G, the self-cleavage is 1.47. In the case of A51U A63U C76U C107G A114U, the self-cleavage came out at 0.01. With A51U A59G A117G G138A, the self-cleavage amounted to 1.13. Under A52U A56G U100C stands 2.2. With A52G A78G A90G U124C, the self-cleavage turned out to be 0.11. As for A51G A111G A116G, the self-cleavage turned out to be 0.03. With A54G A78U U131C, the self-cleavage turned out to be 0.08. Under A51G U100C U127C stands 1.89; under A51G A92G U127C, 0.48; under A52G A60G U87C U122A, 0.58. Turning to A52G A55G U72C C81U A89U, the self-cleavage is 0.14. For A52G A96G A126C A134G, the self-cleavage amounted to 1.1.

Consider A54G A55G A68G A90G, for which the self-cleavage is 1.81. Under A52G A98U U130C stands 2.77; under A51G A92G U102C A117G, 1.86; under A52G U57C A118G U131C G138A, 0.62. Under A54G A90G A92G A94G A96G stands 1.05.

As to A51G A60G A86G U102C, the self-cleavage is 1.74.

As for A52G A54G A62U A91C, the self-cleavage was found to be 0.74. A51G A82G A110C A114G U127C: the self-cleavage was 0.01.

For the variant A51G A95G U130C, the self-cleavage worked out at 1.67.

In the case of A52U A56G A110G, the self-cleavage came to 0.17. Under A51G A52G U124C stands 0.7; under A54G A68C U130C, 1.73; under A52G A66G U132C, 1.73. Regarding A51U A91G G104A C107A A111G A140G, the self-cleavage came out at 0.

Take A51G A69G U87A: the self-cleavage was 1.26.

On to A51G A67G A86G A92G G137A, for which the self-cleavage amounted to 1.16. For A51G U72A A86U U102C, the self-cleavage came to 0.77. In the case of A54G A56C A68U, the self-cleavage was 1.74. Regarding A51U A55G G75A U103C, the self-cleavage was determined as 0.08. In the case of A51G A54G A62U it was 0.95; in that of A54G A95G A96U, 1.43; in that of A51U U57G A68G G79A, 0.08.

For A51G A91G A96G, the self-cleavage was found to be 0.96. For A52G A59G A90G A92G, the self-cleavage came to 0.44. In the case of A52G A54G U87C G106A U122G, the self-cleavage came out at 0.

Turning to A51G A67G U139C, the self-cleavage came out at 1.31. With A51G U108C A134G, the self-cleavage stood at 0.03. As to A51G A82G U120A, the self-cleavage turned out to be 0.66. For A51G A52U U57C U108C A117U, the self-cleavage was found to be 0.01. As for A52G U57C A59G U100A, the self-cleavage came to 0.52. In the case of A54G A78U U87A, the self-cleavage amounted to 0.2.

As for A54G A90G A114C, the self-cleavage amounted to 0.01. Turning to A51G A62G U72C A125G, the self-cleavage was 0.15. A52G U70C A82U: the self-cleavage was 0.18. Consider A51G U108C U122C A126U A129U, for which the self-cleavage was 0.01.

As to A51U A118G U124C, the self-cleavage stood at 0.21. As to A52U A64G A67C A86G U122A, the self-cleavage turned out to be 1.35. For A54G A60G A78U U120C, the self-cleavage was found to be 0.14. Under A51U G115A U120C stands 0.04; under A54G A92G A110G, 0.07. Take A52G A94U A117G: the self-cleavage amounted to 2.27.

For the variant A54G A55G U70C, the self-cleavage was 0.9.

On to A52U A69G A140U, for which the self-cleavage is 0.97. Take A51G A62G A96G: the self-cleavage came out at 1.76.

The values above are taken from the RNAGym collection of RNA variant scans (doi:10.7554/elife.90254).
